Results from ChEMBL document CHEMBL5606458, “ASAP - ZIKV NS2B-NS3 protease fluorescence single point” (2024).
In all, about 2,700 compounds went through this assay and about 160 (5.9%) showed an effect of 50% or more. This is one part of the list.

Molecular target: Nonstructural protein 3 (Zika virus) (UniProt A0A024AXB9)
[1] = PRVABC59, Concentration 15.0 uM, Number of replicates 1.0
[2] = PRVABC59, Concentration 50.0 uM, Number of replicates 1.0
[3] = PRVABC59, Concentration 10.0 uM, Number of replicates 1.0

Sequence of UniProt A0A024AXB9 (A0A024AXB9 as listed by the source): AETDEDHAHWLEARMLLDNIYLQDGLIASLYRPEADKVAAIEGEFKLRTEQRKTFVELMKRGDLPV

O=C(NCc1cc(F)ccc1Br)c1cc(Cl)ccc1NS(=O)(=O)c1ccc(Oc2ccccc2Cl)cc1
inhibition [1]: 37.1%

COc1cccc(N2C[C@@H](NC(=O)c3cc(Cl)ccc3NS(=O)(=O)c3ccc(Oc4ccccc4Cl)cc3)CC2=O)c1
inhibition [1]: 28.5%

Cc1cc(CO)c2cccc(C[C@H](NC(=O)C3(C(N)=O)CC3)C(=O)O)c2n1
inhibition (PRVABC59, Concentration 49.95 uM, Number of replicates 2.0, Standard deviation 1.395044164145976 %): -7.52%
inhibition (PRVABC59, Concentration 99.9 uM, Number of replicates 2.0, Standard deviation 1.2344633226203177 %): -6.53%

CC(C)(C)N(Cc1ccsc1)C(=O)c1cc(Cl)ccc1NS(=O)(=O)c1ccc(Oc2ccccc2Cl)cc1
inhibition [1]: 44.3%

O=Cc1ccc(N2CCC(C(=O)N3CCN(C(=O)C(F)(F)F)CC3)CC2)cc1
inhibition [2]: 22.1%

O=C(NCCOc1ccccc1Cl)c1cc(Cl)ccc1NS(=O)(=O)c1ccc(Oc2ccccc2Cl)cc1
inhibition [1]: 26.3%

Cc1c(Br)cccc1NC(=O)C1CCN(c2ccc(C=O)cc2)CC1
inhibition [2]: 24.4%

Cc1ccc(Cl)c(CNC(=O)c2cc(Cl)ccc2NS(=O)(=O)c2ccc(Oc3ccccc3Cl)cc2)c1
inhibition [1]: 29.4%

Nc1nccc(N2CCN(c3ncnc4sccc34)CC2)n1
inhibition (PRVABC59, Concentration 49.5 uM, Number of replicates 2.0, Standard deviation 0.8346490453393044 %): -1.62%
inhibition (PRVABC59, Concentration 99.01 uM, Number of replicates 2.0, Standard deviation 0.39347744065548357 %): 0.185%
inhibition (PRVABC59, Concentration 198.0 uM, Number of replicates 2.0, Standard deviation 1.4924321283568258 %): 2.76%

C[C@@H](NC(=O)c1cc(Cl)ccc1NS(=O)(=O)c1ccc(Oc2ccccc2Cl)cc1)c1cccc(Br)c1
inhibition [1]: 35.8%

CNC(=O)c1ccccc1NS(=O)(=O)c1ccc(Oc2ccccc2Cl)cc1
inhibition (PRVABC59, Concentration 49.5 uM, Number of replicates 2.0, Standard deviation 3.4125681151786877 %): 5.19%
inhibition (PRVABC59, Concentration 99.01 uM, Number of replicates 2.0, Standard deviation 2.1023857032787294 %): 2.73%
inhibition (PRVABC59, Concentration 198.0 uM, Number of replicates 2.0, Standard deviation 1.6453455309076856 %): -2.99%

O=Cc1ccc(N2CCC(C(=O)Nc3cc(Cl)cc([N+](=O)[O-])c3O)CC2)cc1
inhibition [2]: 93.4%

CS(=O)(=O)C1(CNC(=O)[C@]2(c3ccc(F)cc3)CCCNC2)CC1
inhibition (PRVABC59, Concentration 49.5 uM, Number of replicates 2.0, Standard deviation 0.16738056118331518 %): -0.908%
inhibition (PRVABC59, Concentration 99.01 uM, Number of replicates 2.0, Standard deviation 0.5953422319206924 %): -0.043%
inhibition (PRVABC59, Concentration 198.0 uM, Number of replicates 2.0, Standard deviation 0.5896360543944994 %): 0.085%

CN1CCN(CCCNC(=O)C2CCN(c3ccc(C=O)cc3)CC2)CC1
inhibition [2]: 19.4%

O=Cc1ccc(N2CCC(C(=O)N3CCN(c4nsc5ccccc45)CC3)CC2)cc1
inhibition [2]: -2.82%

COc1ccccc1N1CCN(C(=O)c2ccccc2Cc2cccc3c(CO)cc(C)nc23)CC1
inhibition (PRVABC59, Concentration 49.95 uM, Number of replicates 2.0, Standard deviation 0.5662936545494685 %): 2.1%
inhibition (PRVABC59, Concentration 99.9 uM, Number of replicates 2.0, Standard deviation 0.3250944897795658 %): 8.89%

C[C@H](NC(=O)C1CCN(c2ccc(C=O)cc2)CC1)c1ccc2c(c1)CCCC2
inhibition [3]: 8.94%

C[C@@H]1CN(CCNC(=O)C2CCN(c3ccc(C=O)cc3)CC2)C[C@H](C)O1
inhibition [2]: 22.3%

COC(=O)c1cccc(C(=O)Nc2ccncc2C)c1
inhibition (PRVABC59, Concentration 49.5 uM, Number of replicates 2.0, Standard deviation 0.9623069604443751 %): -2.85%
inhibition (PRVABC59, Concentration 99.01 uM, Number of replicates 2.0, Standard deviation 2.0559193717779234 %): -1.13%
inhibition (PRVABC59, Concentration 198.0 uM, Number of replicates 2.0, Standard deviation 0.22663679904083914 %): -0.144%

Cc1cnccc1NC(=O)c1c(C)nn(Cc2ccccc2)c1Cl
inhibition (PRVABC59, Concentration 49.5 uM, Number of replicates 2.0, Standard deviation 0.753332447596911 %): -0.561%
inhibition (PRVABC59, Concentration 99.01 uM, Number of replicates 2.0, Standard deviation 0.1025743025075092 %): 1.32%
inhibition (PRVABC59, Concentration 198.0 uM, Number of replicates 2.0, Standard deviation 0.3867554977383978 %): 2.02%

Cc1cc(C)cc(OCCN(C)C(=O)c2cc(Cl)ccc2NS(=O)(=O)c2ccc(Oc3ccccc3Cl)cc2)c1
inhibition [1]: 15.3%

CNC(=O)c1cn(S(=O)(=O)c2ccc(Oc3ccccc3Cl)cc2)c2ccc(Cl)cc12
inhibition (PRVABC59, Concentration 49.5 uM, Number of replicates 2.0, Standard deviation 2.909823478813945 %): 6.62%
inhibition (PRVABC59, Concentration 99.01 uM, Number of replicates 2.0, Standard deviation 2.872825289317142 %): 9.28%
inhibition (PRVABC59, Concentration 198.0 uM, Number of replicates 2.0, Standard deviation 2.996878974524955 %): 16%

C[C@H](NC(=O)c1cc(Cl)ccc1NS(=O)(=O)c1ccc(Oc2ccccc2Cl)cc1)c1cc(F)ccc1F
inhibition [1]: 40.3%

Cc1ccc(Cl)c(CNC(=O)C2CCN(c3ccc(C=O)cc3)CC2)c1
inhibition [3]: 8.13%

COc1cc(CC(=O)N2CCN(C(C)=O)CC2)nc(N2CCNCC2)n1
inhibition (PRVABC59, Concentration 49.5 uM, Number of replicates 2.0, Standard deviation 1.7917997603368567 %): -5.36%
inhibition (PRVABC59, Concentration 99.01 uM, Number of replicates 2.0, Standard deviation 1.123055377839713 %): -6.23%
inhibition (PRVABC59, Concentration 198.0 uM, Number of replicates 2.0, Standard deviation 3.659924091579062 %): -6.93%

O=C(Nc1ccc(F)c(Br)c1)c1cc(Cl)ccc1NS(=O)(=O)c1ccc(Oc2ccccc2Cl)cc1
inhibition [1]: 48.7%

CNC(=O)c1cc(Cl)cc(OC)c1NS(=O)(=O)c1ccc(Oc2ccccc2Cl)cc1
inhibition (PRVABC59, Concentration 49.5 uM, Number of replicates 2.0, Standard deviation 0.214449202759478 %): -0.362%
inhibition (PRVABC59, Concentration 99.01 uM, Number of replicates 2.0, Standard deviation 1.325070417351507 %): 0.793%
inhibition (PRVABC59, Concentration 198.0 uM, Number of replicates 2.0, Standard deviation 3.632092409628181 %): -2.32%

O=C(N[C@H](c1ccccc1)c1ccco1)c1cc(Cl)ccc1NS(=O)(=O)c1ccc(Oc2ccccc2Cl)cc1
inhibition [1]: 53.4%

COc1ccccc1C1CCN(C(=O)C2CCN(c3ccc(C=O)cc3)CC2)CC1
inhibition [2]: 25%

Cc1cccc(N2CCN(C(=O)c3cc(Cl)ccc3NS(=O)(=O)c3ccc(Oc4ccccc4Cl)cc3)C[C@@H]2C)c1
inhibition [1]: 7.4%

Cc1ccc([C@H](CCO)NC(=O)C2CCN(c3ccc(C=O)cc3)CC2)cc1
inhibition [3]: 20.1%

CCCCCC(=O)N[C@H](C(=O)Nc1cccc(C(N)=O)c1)c1ccc(OCc2ccccc2)cc1
inhibition (PRVABC59, Concentration 49.5 uM, Number of replicates 2.0, Standard deviation 1.8849000413549961 %): 1.48%
inhibition (PRVABC59, Concentration 99.01 uM, Number of replicates 2.0, Standard deviation 2.168670599840843 %): 0.647%
inhibition (PRVABC59, Concentration 198.0 uM, Number of replicates 2.0, Standard deviation 0.28169942020317307 %): 2.61%

O=C(NCc1cccc(Br)c1)c1cc(Cl)ccc1NS(=O)(=O)c1ccc(Oc2ccccc2Cl)cc1
inhibition [1]: 28.6%

c1cncc(CN2CCC(c3c[nH]c4cccnc34)CC2)c1
inhibition (PRVABC59, Concentration 49.5 uM, Number of replicates 2.0, Standard deviation 1.3589806231617505 %): -0.654%
inhibition (PRVABC59, Concentration 99.01 uM, Number of replicates 2.0, Standard deviation 1.9362742679977742 %): -0.837%
inhibition (PRVABC59, Concentration 198.0 uM, Number of replicates 2.0, Standard deviation 2.5868999732011755 %): -0.675%

COc1cc(COc2ccccc2CO)nc(N2CCNCC2)n1
inhibition (PRVABC59, Concentration 49.5 uM, Number of replicates 2.0, Standard deviation 2.0450547782422097 %): -0.123%
inhibition (PRVABC59, Concentration 99.01 uM, Number of replicates 2.0, Standard deviation 1.583334198344031 %): 3.21%
inhibition (PRVABC59, Concentration 198.0 uM, Number of replicates 2.0, Standard deviation 0.5332257429700031 %): 8.92%

CN1CCC(N(C(=O)c2cc(Cl)ccc2NS(=O)(=O)c2ccc(Oc3ccccc3Cl)cc2)C2CCN(C)CC2)CC1
inhibition [1]: 10%

O=Cc1ccc(N2CCC(C(=O)N[C@H]3CCc4ccccc4NC3=O)CC2)cc1
inhibition [2]: 29.5%

O=C(NCc1cccc(OC(F)F)c1)c1cc(Cl)ccc1NS(=O)(=O)c1ccc(Oc2ccccc2Cl)cc1
inhibition [1]: 33.5%

O=C(c1ccc(F)cc1)[C@H]1CCCN(C(=O)c2cc(Cl)ccc2NS(=O)(=O)c2ccc(Oc3ccccc3Cl)cc2)C1
inhibition [1]: 10.2%

O=Cc1ccc(N2CCC(C(=O)N(Cc3ccccc3)[C@@H](CO)c3ccccc3)CC2)cc1
inhibition [2]: 24.2%

O=C(c1cc(Cl)ccc1NS(=O)(=O)c1ccc(Oc2ccccc2Cl)cc1)N1CCC(n2c(=O)[nH]c3ccccc32)CC1
inhibition [1]: 15.6%

O=C(NCc1ccc([N+](=O)[O-])cc1)c1cc(Cl)ccc1NS(=O)(=O)c1ccc(Oc2ccccc2Cl)cc1
inhibition [1]: 41.7%
